# PubChem BioAssay AID504706 (National Center for Advancing Translational Sciences (NCATS), 2011)
# About 200 (0.062%) of roughly 320,000 compounds were called active. This list was built around the results that the source calls inconclusive (neither active nor inactive); the mix of calls is not that of the screen. Calls follow the shape of the dose curve; as a rule, active = well fitted activation curve with a large enough effect; inconclusive = small, poorly fitted or top-dose-only effect; inactive = no such curve, though single readings can be large or run the other way. No potency is given beside an inconclusive call; the fits are too rough.
# Assay: qHTS assay for re-activators of p53 using a Luc reporter; also: nearly all actives have a fitted effect of over 45% in size; as to activity change, positive = activation: % of control where 0% means no effect
# Conditions: H1299 p53-A138V BP100-luciferase reporter, luminescence, 24 h; series mostly up to 92.2 µM; activity change, positive = activation: at the top concentration
# Method in brief: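 H1299 (p53-null), stable ts p53-A138V + BP100-Luc; 1000 cells/well, Opti-MEM/10% FBS; cpd 4 pt, 1:5; 24 h, 37 deg C, 5% CO2; detection reagent 10 min RT; luminescence.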
# Potency is read from the fitted curve at half-maximal effect; tags tell the direction and shape of the fitted curve.
SMILES,Potency,"activity change, positive = activation"
Cc1cccc(NC(=S)NC(C)C(c2ccccc2)N2CCN(C)CC2)c1C (stereo not given),"inconclusive [activator, single point]",
COc1cc(CCCN2C(=S)NC[C@@H]2CC2CCCCC2)cc(OC)c1OC,,inactive: -4.1%
Cc1ccccc1-c1nc(-c2ccc(NC(=O)c3cccs3)cc2)no1,"inconclusive [activator, single point]",
N#Cc1nc(-c2cccc3ccccc23)oc1N1CCCCC1,"inconclusive [activator, partial curve, poor fit]",
CC(=O)c1ccc(NC(=O)C(C)OC(=O)c2ccc3c(c2)nc(C)n3-c2ccccc2)cc1 (stereo not given),"inconclusive [activator, partial curve, poor fit]",
CN(C)c1ccc(/C=N/NC(=O)C(O)(c2ccccc2)c2ccccc2)o1,,inactive: 8.78%
Cc1cccc(NC(=O)c2ccc(COc3ccc4ccccc4c3)o2)n1,"inconclusive [activator, single point]",
Fc1ccc(-c2csc(N3CCC(c4ccccc4)C3)n2)cc1 (stereo not given),"inconclusive [activator, partial curve, poor fit]",
CCSc1nc2sc3c(c2c(=O)n1-c1ccc(OC)cc1)CCN(C)C3,,inactive: -0.864%
Cc1cccc(NC(=O)CCCN2C(=O)C3CC=CCC3C2=O)c1 (stereo not given),,inactive: -7.67%
Cc1ccc(S(=O)(=O)Nc2ccccc2CNc2ccccn2)cc1,"inconclusive [activator, partial curve, poor fit]",
COc1ccccc1C(=O)Nc1nsc(-c2ccccc2)n1,"inconclusive [activator, full curve, poor fit]",
Cc1cc(NC(=O)Cc2c(F)cccc2Cl)no1,,inactive: -7.46%
CC(C)(C)c1cc(C(=O)N/N=C/c2ccco2)n[nH]1,"inconclusive [activator, partial curve, poor fit]",
Cc1nc(NC(=O)C2CCCCC2)sc1C,"inconclusive [activator, full curve, poor fit]",
COC(=O)COn1c(-n2nc(C)cc2C)nc2ccccc2c1=O,,inactive: 12.1%
CSc1ccc(/C=C/C(=O)NC23CC4CC(CC(C4)C2)C3)cc1,"inconclusive [activator, full curve, poor fit]",
CN(C)/C=C1/C(=O)N(c2ccc([N+](=O)[O-])cc2)N=C1c1ccccc1,"inconclusive [activator, partial curve, poor fit]",
CCn1cc(C(=O)NCCCOC(C)C)c(=O)c2cc(S(=O)(=O)N3CCC(C)CC3)ccc21,,inactive: -0.824%
CSc1ccc(Cc2ccc(Cl)cc2Cl)nn1,"inconclusive [activator, partial curve, poor fit]",
O=C(COc1ncnc2ccccc12)NCc1ccc2c(c1)OCO2,"inconclusive [activator, single point]",
O=C(NCC(=O)N1CCCCC1)c1sc2ccccc2c1Cl,"inconclusive [activator, partial curve, poor fit]",

SMILES,Potency,"activity change, positive = activation"
CCCCC(=O)NC(=S)Nc1cccc(NC(=O)CC)c1,,inactive: -3.74%
O=C(c1cc(-c2ccco2)on1)N1CCc2ccccc2C1,"inconclusive [activator, single point]",
COc1cccc(NC(=O)C2C(c3ccccc3)C2(Cl)Cl)c1 (stereo not given),"inconclusive [activator, single point]",
CCCNS(=O)(=O)c1ccc(NC(=O)c2ccccn2)cc1,,inactive: 5.46%
Cc1ccc(-c2cc(C(=O)N3N=C(C(F)F)CC3(O)C(F)F)c3ccccc3n2)cc1C (stereo not given),"inconclusive [activator, partial curve, poor fit]",
CC(C)(C)c1ccc(NC(=O)COC(=O)c2ccc3ncsc3c2)cc1,"inconclusive [activator, partial curve, poor fit]",
COc1ccc(OCc2csc(N)n2)cc1,"inconclusive [activator, partial curve, poor fit]",
O=C(O[C@H]1[C@H](Cc2ccccc2)NS(=O)(=O)[C@H]2C[C@@H]3C=C[C@]12O3)c1ccc([N+](=O)[O-])cc1,"inconclusive [activator, full curve, poor fit]",
O=C(Cc1cccs1)Nc1ccccc1C(=O)O,"inconclusive [activator, full curve, poor fit]",
CCc1ccc2oc(C(=O)NCc3ccncc3)c(C)c2c1,"inconclusive [activator, single point]",
O=C1CCCc2nc(N3CCCCC3)sc21,"inconclusive [activator, full curve, poor fit]",
O=C(Nc1ccccc1)OCCCc1ccccc1,"inconclusive [activator, partial curve, poor fit]",
Cc1cc(C)c(OCC(=O)Nc2cc(C(=O)O)cc(C(=O)O)c2)cc1C,,inactive: -0.83%
C(=N\Nc1nc(-c2ccccn2)nc2ccccc12)/c1ccccc1,"inconclusive [activator, full curve, poor fit]",
CCOC(=O)NC(=O)c1cn(CCN(C)C)c(=O)[nH]c1=O,"inconclusive [activator, single point]",
COc1cc(NC(=S)Nc2ccc(Br)cc2Cl)c(OC)cc1Cl,,inactive: 22%
Cc1sc(NC(=O)c2ccccc2)c(C#N)c1-c1ccccc1,"inconclusive [activator, full curve, poor fit]",
CCOc1ccc(NC(=O)CN(c2ccc(OC)cc2)S(C)(=O)=O)cc1,"inconclusive [activator, partial curve, poor fit]",
O=C1/C(=C/N(C(=O)c2ccco2)c2ccc(Br)cc2)Sc2ccccc21,"inconclusive [activator, partial curve, poor fit]",
CC(C)(C)c1ccc(Cn2ccc(-c3ccc4c(c3)OCO4)n2)cc1,"inconclusive [activator, single point]",
COc1ccc(/C=N/n2cnnc2SCCO)cc1OC,"inconclusive [activator, single point]",
CCc1nccn1C(=O)c1cnn2c(C(F)F)cc(-c3ccc(C)cc3)nc12,,inactive: 0.11%

SMILES,Potency,"activity change, positive = activation"
NC(=O)CC1C(=O)N(c2ccccc2)C(=S)N1NC(=O)c1ccc(Br)cc1 (stereo not given),"inconclusive [activator, full curve, poor fit]",
CN1CCN(S(=O)(=O)c2ccc(NC(=S)NC(=O)c3ccc(Cl)cc3)cc2)CC1,"inconclusive [activator, partial curve, poor fit]",
Cc1cccc(C(=O)NC(=S)NNC(=O)c2cccs2)c1,"inconclusive [activator, single point]",
CCCCNC(=S)Nc1ccc([N+](=O)[O-])cc1,"inconclusive [activator, full curve, poor fit]",
O=C(Nc1ccc2ccccc2n1)c1ccccc1Cl,"inconclusive [activator, full curve, poor fit]",
O=[N+]([O-])c1ccccc1-c1nc(-c2ccc(Br)o2)no1,"inconclusive [activator, partial curve, poor fit]",
CN(C)c1ccc(/C=C2\CCCc3c2nc2ccccc2c3C(=O)O)cc1,"inconclusive [activator, partial curve, poor fit]",
O=C(NC(=S)Nc1ccccc1N1CCCCC1)c1ccco1,"inconclusive [activator, partial curve, poor fit]",
COC(=O)c1ccc(NC(=O)COc2ccccc2OC)cc1,"inconclusive [activator, single point]",
COc1cc(C)ccc1OCc1cc(C(=O)N2CCN(C3CCCCC3)CC2)no1,"inconclusive [activator, partial curve, poor fit]",
O=C(NCc1ccccc1F)c1ccc2c(c1)OCO2,"inconclusive [activator, single point]",
COc1cccc(OCc2cc(C(=O)N3CCN(C(=O)c4ccco4)CC3)no2)c1,"inconclusive [activator, partial curve, poor fit]",
O=S(=O)(Nc1cc(S(=O)(=O)N2CCOCC2)ccc1N1CCOCC1)c1ccc2c(c1)OCCO2,"inconclusive [activator, single point]",
CCOC(=O)c1cccnc1SCc1cc(=O)n2ccccc2n1,"inconclusive [activator, single point]",
COc1cc(C(=O)N/N=C(\c2ccccc2)c2ccccn2)cc(OC)c1OC,"inconclusive [activator, partial curve, poor fit]",
CCc1ccc(NC(=O)COC(=O)/C=C/c2ccco2)cc1,"inconclusive [activator, partial curve, poor fit]",
CCCN1C(=O)SC(CC(=O)Nc2ccc(C)cc2)C1=O (stereo not given),"inconclusive [activator, partial curve, poor fit]",
CC1CCCC(NCC(=O)Nc2ccc(C(N)=O)cc2)C1C (stereo not given),,inactive: -2.73%
CC(C)CN(C(=O)COc1ccc([N+](=O)[O-])cc1)c1c(N)n(CC(C)C)c(=O)[nH]c1=O,"inconclusive [activator, single point]",
O=S(=O)(c1ccc(Cl)c(NC(=S)Nc2cccc(O)c2)c1)N1CCOCC1,,inactive: 5.84%
Cc1cccc(NC(=O)NCc2ccccn2)c1,"inconclusive [activator, full curve]",
